Results: PubChem BioAssay AID1745853 (National Center for Advancing Translational Sciences (NCATS), 2022)
The list shows a part of the results. The main result of the screen is listed elsewhere. These columns were measured beside it and carry no call.

What was measured:
Experiment in all cases: Primary Screen for Target Class Profiling of Small Molecule Inhibitors of Methyltransferases
[1] = target: Glycine N-methyltransferase (Homo sapiens) (UniProt Q14749); settings: purified enzyme, MTase-Glo SAH luminescence; measured here: GNMT inhibition; at 40 µM; stronger effect = lower value
In short: (§1)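 Each enzyme was assayed with SAM and its substrate. SAH formation detected by MTase-Glo luminescence; single-point 40 uM screen[…].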

[2] = target: Guanidinoacetate N-methyltransferase (Homo sapiens) (UniProt Q14353); settings: purified enzyme, MTase-Glo SAH luminescence; measured here: GAMT inhibition; at 40 µM; stronger effect = lower value
In short: as §1

[3] = target: Histamine N-methyltransferase (Homo sapiens) (UniProt P50135); settings: purified enzyme, MTase-Glo SAH luminescence; measured here: HNMT inhibition; at 40 µM; stronger effect = lower value
In short: as §1

[4] = target: Nicotinamide N-methyltransferase (Homo sapiens) (UniProt P40261); settings: purified enzyme, MTase-Glo SAH luminescence; measured here: NNMT inhibition; at 40 µM; stronger effect = lower value
In short: as §1

[5] = target: Phenylethanolamine N-methyltransferase (Homo sapiens) (UniProt P11086); settings: purified enzyme, MTase-Glo SAH luminescence; measured here: PNMT inhibition; at 40 µM; stronger effect = lower value
In short: as §1
% is set by controls: 0 for no effect and ±100 for the full control effect.

Structure (SMILES)	activity change, negative = inhibition [1]	activity change, negative = inhibition [2]	activity change, negative = inhibition [3]	activity change, negative = inhibition [4]	activity change, negative = inhibition [5]
COc1ccc(-c2cnc(NC(=O)Cc3ccc(F)cc3)c3c2CCO3)cn1	-7.98%	-1.16%	-9.2%	-6.21%	4.03%
COC(=O)C12C(=O)C(C)=C(O)C1(C)C(C)=CC1C34CCC(OC3=O)C(C)(C)C4CCC12C (configuration not stated)	4.65%	6.49%	5.41%	-6.48%	6.26%
Cc1ncsc1CCC(=O)N1CC[C@@H]2[C@@H](CCC(=O)N2CCN)C1	-4.43%	-6.42%	-1.28%	-10.9%	-6.51%
CCC(C(=O)N1CCN(c2ncccn2)CC1)n1ccc2cc(S(=O)(=O)N3CCCCC3)ccc21 (configuration not stated)	0.464%	4.82%	2.43%	2.99%	3.44%
C=C1C(OC(C)=O)[C@@]23CCC4[C@](C)(C(=O)O)CCC[C@@]4(C)[C@]2(O)CC[C@H]1C3 (some centres not stated)	-5.82%	-4.98%	-5.91%	-15.1%	-13.4%
COc1ccc(CNC(=O)C2(C)Cn3cnc(C(=O)NCc4ccc(C)cc4)c3C(=O)N2C2CC2)cc1 (configuration not stated)	-3.17%	0.015%	3.48%	0.966%	0.541%
CCOc1ccc(-n2c(C(C)N(Cc3cccnc3)C(=O)Cc3ccc(F)c(C(F)(F)F)c3)nc3ncccc3c2=O)cc1 (configuration not stated)	-3.77%	21.9%	7.08%	-0.928%	10.6%
CCOC(=O)c1cc2n(n1)CC(C)(C(=O)NC1CCCCCC1)N(c1ccc(F)cc1F)C2=O (configuration not stated)	3.38%	1.31%	1.25%	10.5%	-0.064%
O=c1ccc2ccc(O)c(O)c2o1	-12.5%	8.81%	9.63%	-3.8%	2.78%
Cc1ccc(CNC(=O)CCn2ccc3cc(S(=O)(=O)N4CCCC4)ccc32)o1	4.55%	1.58%	4.37%	7.98%	3.67%
CCCC1c2ccc(C)n2CCN1C(=O)Nc1cccc(C)c1 (configuration not stated)	2.78%	-1.99%	-4%	4.63%	-1.87%
CC(=O)N1CCN(C(=O)Cc2ccc(Nc3ncc(F)c(Nc4ccc(C(=O)Nc5ccccc5Cl)cc4)n3)cc2)CC1	-6.69%	21%	-8.98%	-10.4%	-3.79%
O=C(C1CCCN([S+](=O)([O-])c2cccs2)C1)N1CCC(c2nc3ncccc3[nH]2)CC1 (configuration not stated)	-7.36%	-5.99%	-5.2%	-21.3%	-10.4%
CCCn1c(=O)c2ccc(C(=O)NC3CCCC3)cc2n2c(SCC(=O)NC3CCCCC3)nnc12	6.41%	0%	8.93%	7.39%	7.69%
COc1ccc(OC)c(S(=O)(=O)N2CC[C@@H]3COCCN(C)[C@@H]3C2)c1	-5.85%	1.97%	-0.889%	-4.08%	-5.61%
OCC1OC(Oc2cc(O)cc(/C=C/c3ccc(O)cc3)c2)C(O)C(O)C1O (configuration not stated)	-5.09%		5.4%		
